Source: the RNAGym collection of RNA variant scans (doi:10.7554/elife.90254)
Read counts are not given, so values of variants with three or more changes are uncertain.

B1: LINE1-mini (parent)
chain: GGCAGAGCUCAACACAGCGUGGCAAAGUGGCUGUGGCUAGACUGCC

Variants of: B1
Assay: self-cleavage, relative activity (ratio to wild type); higher = more cleavage; in vitro, sequencing; the parent is a self-cleaving ribozyme
G1U A24U A26G U43C gave a self-cleavage of 0.03. G1U A4G G29U G33U U38G showed a self-cleavage of 0.06. In the case of G1U A24C C37A, the self-cleavage is reported as 0.15. In the case of G1C U9A A26G, the self-cleavage is reported as 0.02. In the case of G1U A12G U34A C45G, the self-cleavage is reported as 0. For G1U A12G G35A U43A, the self-cleavage was 0.01. With G1C G35U U38A C42G the self-cleavage was 0. Variant G1C G30C C46A has a self-cleavage of 0.02. With G1U C3G A6C U9G G29U the self-cleavage was 0.02. With G1U C3G A16G U34G U38G G40A the self-cleavage was 0.01. For G1U A6C A12C A24G G36C A39C, the self-cleavage was 0.01. Work on G1U C3A C8G C23A G29A U32A yielded a self-cleavage of 0.17. G1U C8G U20C C23U A24C A25U G33C gave a self-cleavage of 0.04. In the case of G1U C10G C13A U20C G30A G35A, the self-cleavage is reported as 0.01. G1U C3U G22U C23G U28G G30C showed a self-cleavage of 0.18. With G1U A12G C13A G29A G36A the self-cleavage was 0.03. In the case of G1U C3G A11G C42U, the self-cleavage is reported as 0. For G1U A4U C10A C23G G36A, the self-cleavage was 0.02. Variant G1C U20G A24G A26U has a self-cleavage of 0.01. G1U A4G G19A U38A G40U gave a self-cleavage of 0.03. G1U C3G C8A C10A gave a self-cleavage of 0.04. Variant G1C U28A A41C U43A has a self-cleavage of 0. G1U A12G U20G G21C C42G showed a self-cleavage of 0.01. In the case of G1U C10A G17C G19A, the self-cleavage is reported as 0.03. G1U A25G C42A gave a self-cleavage of 0.03. Work on G1U A6U G30C yielded a self-cleavage of 0.13. G1C U9A C37U gave a self-cleavage of 0.04. Work on G1U C8G C10G C18U yielded a self-cleavage of 0.02. Work on G1U C3U G22A G40C yielded a self-cleavage of 0.06. Work on G1U A14G C18U G30A yielded a self-cleavage of 0.18. Variant G1U C10A A11C U20C has a self-cleavage of 0.01. For G1U A11C A14G C23A G35C G36C C45U, the self-cleavage was 0. For G1U C10A C15U U32C C46A, the self-cleavage was 0.01. Work on G1C G30C G36A yielded a self-cleavage of 0.01. G1U C10G G19U showed a self-cleavage of 0.02. G1U C3U G19A A39C showed a self-cleavage of 0.14. Variant G1U A11C C15U A39C has a self-cleavage of 0. For G1C U20A A26C U38A C46A, the self-cleavage was 0.03. Variant G1U A26U U32G U38A C42G has a self-cleavage of 0.05. With G1U A11U C37G the self-cleavage was 0.01. G1C U20C G30U showed a self-cleavage of 0.12. G1U A12U G21U G27A G33C C42U gave a self-cleavage of 0.01. G1U A16G C23U G35U showed a self-cleavage of 0.05. G1U A6C G27U U28G showed a self-cleavage of 0.08. In the case of G1C U34C U38C C46U, the self-cleavage is reported as 0.04. In the case of G1C U9A C10A A16C C23U U28C U38C, the self-cleavage is reported as 0. G1C U9A C15U C18A G22A gave a self-cleavage of 0.05. For G1U A4U C10A U28A U38C, the self-cleavage was 0.01. Work on G1U A16U U34G yielded a self-cleavage of 0.01. Variant G1C U20G A26U G36A C37U has a self-cleavage of 0.01. In the case of G1U A12U G27U, the self-cleavage is reported as 0.02. G1U A12U G19U G22U showed a self-cleavage of 0.01. Variant G1U A12U C13G has a self-cleavage of 0.01. Variant G1U A11G A14U A25C U28A has a self-cleavage of 0.01. With G1U A4C G7C G29U the self-cleavage was 0.05. In the case of G1U A11G A12U U34G, the self-cleavage is reported as 0.01. Work on G1C U9A A11U yielded a self-cleavage of 0.02. Work on G1U A4G A16G U34A yielded a self-cleavage of 0.02. With G1U A4U U34A G40A the self-cleavage was 0.09. G1U A12C C23G C42U showed a self-cleavage of 0.01. With G1U A6C A11U the self-cleavage was 0.01. In the case of G1U A11C G17U U20A, the self-cleavage is reported as 0.01. Work on G1U C3G G7C C18G A24G G35U A39U G44A C46A yielded a self-cleavage of 0.36. Variant G1C G27U G35A C42A has a self-cleavage of 0.01. In the case of G1U C3G A12U A26G, the self-cleavage is reported as 0.07. In the case of G1U A11G A14U C31U, the self-cleavage is reported as 0.01. Work on G1C U9A A14U U32A G40A yielded a self-cleavage of 0.01. G1U A6U U28C A41G C42G gave a self-cleavage of 0.07. G1U C10G C13U C15A G17C A26G G33U C45A C46G gave a self-cleavage of 0.01. In the case of G1C U28C C31G U38A, the self-cleavage is reported as 0.01. G1C G29U C46U gave a self-cleavage of 0.17. Variant G1C G30U G44A has a self-cleavage of 0.02. Work on G1C G22U C31G yielded a self-cleavage of 0.01. Variant G1C U20G U32C has a self-cleavage of 0.01. G1U A6G G17A G44A gave a self-cleavage of 0.13. Variant G1U A16U C31U has a self-cleavage of 0.04. With G1U A16U G17A the self-cleavage was 0.12. With G1U A16U G17U the self-cleavage was 0.03. G1U A12C U28C G30C A39U showed a self-cleavage of 0. G1U C8A G27C U32G C37A A39G gave a self-cleavage of 0.04. In the case of G1U A11U G36A A39G G44A, the self-cleavage is reported as 0. With G1U A4G U9G G44U the self-cleavage was 0.05. Variant G1U A12G A16C C46U has a self-cleavage of 0.14. For G1U C10A U20A, the self-cleavage was 0. For G1U C10A G17U A24U G29A, the self-cleavage was 0.02. With G1U A39U C42A the self-cleavage was 0.04. G1C G27U C42A gave a self-cleavage of 0.03. Variant G1U A14U G33C C42U has a self-cleavage of 0.05. Work on G1U A25U A41C yielded a self-cleavage of 0.02. Variant G1U C8G A24C G33A C42A has a self-cleavage of 0.03. With G1U A12U A25C the self-cleavage was 0.06. Work on G1U A6G C15G C46G yielded a self-cleavage of 0.01. For G1C U9C U20C A25G A26C C31U U34C G40A, the self-cleavage was 0.07. With G1U A4G G33A the self-cleavage was 0.06. In the case of G1U A11C G17A C18U, the self-cleavage is reported as 0. With G1U A12C G35A the self-cleavage was 0.02. Work on G1U A14U G33U yielded a self-cleavage of 0.02. Variant G1U C3U C15G G29C A39U C45G C46A has a self-cleavage of 0.03. With G1C G30A C42A G44C the self-cleavage was 0.03. Work on G1C G27C U34A G35U U38A C45A yielded a self-cleavage of 0.03. For G1U A14G U28G G30A C45A, the self-cleavage was 0.01. For G1U A4G U32G A39G C45U C46U, the self-cleavage was 0.04. With G1U A11G G17C C18U G33U the self-cleavage was 0.01. For G1U A4C A26G, the self-cleavage was 0.04. With G1U A39U G40A C42U the self-cleavage was 0.01. For G1U C10U A12U A25U, the self-cleavage was 0.03. Variant G1U A16C G35U C42G has a self-cleavage of 0.03. Work on G1C U32A G44U yielded a self-cleavage of 0.02. Variant G1U C10G A11U A12C U20A A25G has a self-cleavage of 0.01. Variant G1U A14C C15A A16G A24C has a self-cleavage of 0.01. G1U A26U G44A C46U gave a self-cleavage of 0.07. Variant G1U A11C A41U has a self-cleavage of 0.05. G1U C8G U43A C46G showed a self-cleavage of 0.03. Variant G1U C8A G21A C42U has a self-cleavage of 0.4. With G1U A4G A11U the self-cleavage was 0.01. With G1C G27C C31A the self-cleavage was 0.03. For G1U A6G C13U A16C A24U A26C, the self-cleavage was 0.05. For G1U C8A G22U, the self-cleavage was 0.08. In the case of G1C U28A C46G, the self-cleavage is reported as 0.04. With G1U A4G G29A C46G the self-cleavage was 0.12. For G1U A4G G35U, the self-cleavage was 0.12. G1C U9C U34G gave a self-cleavage of 0.01. G1C U9A U28C C42G C45A gave a self-cleavage of 0.01. In the case of G1C U28C G40U, the self-cleavage is reported as 0.02. Work on G1U C3G C13U G17C C42U C45U yielded a self-cleavage of 0.03. For G1C G36C A39U, the self-cleavage was 0.01. G1U A24U A39C showed a self-cleavage of 0.03. Variant G1U C8G C10A C18U A26C has a self-cleavage of 0.02. G1U A16G G21U gave a self-cleavage of 0.23. Work on G1C G27U G29C C31G yielded a self-cleavage of 0.04. G1U C8A U20G G21U U38G gave a self-cleavage of 0.02. Work on G1C U28A U43A yielded a self-cleavage of 0.02. Work on G1U C10A U34C G44A yielded a self-cleavage of 0.01. In the case of G1C U9C C46A, the self-cleavage is reported as 0.03. G1U C8U A25C U34G showed a self-cleavage of 0.01. Variant G1U C3A A12U U28C U38A A39C G40C has a self-cleavage of 0.09. G1U C10A G22A C23G U38C G40C gave a self-cleavage of 0.01. Variant G1U A6C A12U U20A G35U has a self-cleavage of 0.04. Variant G1U C3U U9G C13A U20A G35C has a self-cleavage of 0.04. Variant G1U A4G C46U has a self-cleavage of 0.04. In the case of G1U A12G C15A C18U G29C U38C, the self-cleavage is reported as 0.01. G1U A6C C10G C15A U34C showed a self-cleavage of 0.02. G1U A12C C13A C15U G21A A26G showed a self-cleavage of 0.01. For G1U C3G A16G G27C U28A G36C, the self-cleavage was 0.03. In the case of G1U A6U C8A A14G, the self-cleavage is reported as 0.19. Variant G1U C10A A16G G17A C42U U43A has a self-cleavage of 0.01. With G1U C8A U20A A24C G29C G36C the self-cleavage was 0.01. G1U C3A C23U A26C C37U showed a self-cleavage of 0.06. G1U A24G U32C G35C G40A showed a self-cleavage of 0. In the case of G1U C8A A16U U34G, the self-cleavage is reported as 0.06. G1U A11U C13G gave a self-cleavage of 0.01. Work on G1U A11U C13A yielded a self-cleavage of 0. For G1U A11C G27A, the self-cleavage was 0.03. Work on G1C U9G C18A G29U yielded a self-cleavage of 0.01. In the case of G1U C3G G5U U38A, the self-cleavage is reported as 0.05. Work on G1U C3A A11G C31A yielded a self-cleavage of 0.01. In the case of G1C G40A U43G, the self-cleavage is reported as 0.01. G1U A4G U28C C37U showed a self-cleavage of 0.01. G1U A24G G27C gave a self-cleavage of 0.17. G1U C8U C15U gave a self-cleavage of 0.08. G1U A11C A26C G29C G30C G33A U43A gave a self-cleavage of 0.01. G1U A4U G35U showed a self-cleavage of 0.01. G1C U28G G33C U38C showed a self-cleavage of 0.02. G1C G27A U32A gave a self-cleavage of 0.01. For G1U A4G C13A A25C A26G C37A U38A A39G, the self-cleavage was 0.05. G1C G27A G33U showed a self-cleavage of 0.01. G1C G22U U32G C45U gave a self-cleavage of 0.02.
